What was measured:
[1] = molecular target: T1, B7-H3 on human tumor cell lines (HT29, NCI-N87, HCC1806, HCC827, A375) (human, UniProt Q5ZPR3 29-534); experiment: flow cytometry on HCC1806 cells
T1 construct: whole, on cells
T1 sequence (looked up): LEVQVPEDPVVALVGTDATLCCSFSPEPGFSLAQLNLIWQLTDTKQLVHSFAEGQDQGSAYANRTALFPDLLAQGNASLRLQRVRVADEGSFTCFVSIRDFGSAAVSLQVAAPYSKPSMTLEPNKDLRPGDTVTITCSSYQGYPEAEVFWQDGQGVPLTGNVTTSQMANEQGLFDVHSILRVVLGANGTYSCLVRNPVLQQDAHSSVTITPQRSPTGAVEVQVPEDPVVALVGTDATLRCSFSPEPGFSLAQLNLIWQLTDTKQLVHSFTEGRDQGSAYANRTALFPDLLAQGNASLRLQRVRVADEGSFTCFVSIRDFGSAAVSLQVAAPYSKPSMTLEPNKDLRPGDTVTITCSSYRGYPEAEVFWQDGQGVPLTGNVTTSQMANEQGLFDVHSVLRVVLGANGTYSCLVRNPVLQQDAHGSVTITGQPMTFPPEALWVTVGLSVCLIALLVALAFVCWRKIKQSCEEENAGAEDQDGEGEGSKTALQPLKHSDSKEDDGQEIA

[2] = molecular target: T2, human FcRn (human, UniProt P55899 in part, biotinylated (sites not given)); experiment: BLI (ForteBio), biotinylated FcRn on SA sensor, antibody from 5000 nM, 1:1 global fit
T2 construct: Biotinylated protein captured on SA sensor
T2 sequence (P55899 24-297 limits assumed, form in doubt): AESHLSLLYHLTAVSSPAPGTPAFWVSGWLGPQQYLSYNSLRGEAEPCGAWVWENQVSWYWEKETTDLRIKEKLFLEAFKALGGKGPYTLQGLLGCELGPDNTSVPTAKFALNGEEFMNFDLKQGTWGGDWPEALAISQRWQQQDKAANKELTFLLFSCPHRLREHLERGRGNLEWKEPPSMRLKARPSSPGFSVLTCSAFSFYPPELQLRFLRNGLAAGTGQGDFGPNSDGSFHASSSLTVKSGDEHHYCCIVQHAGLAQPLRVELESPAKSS

[3] = molecular target: T1, B7-H3 on human tumor cell lines (HT29, …); experiment: flow cytometry on HCC827 cells
[4] = molecular target: T3, human Fc receptor protein CD16a (human, UniProt P08637 in part, biotinylated (sites not given)); experiment: BLI (ForteBio), biotinylated receptor on SA sensor
T3 construct: Biotinylated protein captured on SA sensor
T3 sequence (P08637 17-208 limits assumed): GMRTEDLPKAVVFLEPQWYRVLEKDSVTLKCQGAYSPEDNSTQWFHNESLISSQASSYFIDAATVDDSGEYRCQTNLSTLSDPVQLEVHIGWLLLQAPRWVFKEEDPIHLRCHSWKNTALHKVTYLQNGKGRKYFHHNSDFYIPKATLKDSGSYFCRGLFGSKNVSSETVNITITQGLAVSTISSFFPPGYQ

[5] = molecular target: T4, rat B7-H3-his protein (rat, UniProt Q7TPB4 29-248, limits assumed); experiment: BLI (ForteBio), antibody captured on Protein A sensor
T4 construct: not shown: His tag
T4 sequence (looked up): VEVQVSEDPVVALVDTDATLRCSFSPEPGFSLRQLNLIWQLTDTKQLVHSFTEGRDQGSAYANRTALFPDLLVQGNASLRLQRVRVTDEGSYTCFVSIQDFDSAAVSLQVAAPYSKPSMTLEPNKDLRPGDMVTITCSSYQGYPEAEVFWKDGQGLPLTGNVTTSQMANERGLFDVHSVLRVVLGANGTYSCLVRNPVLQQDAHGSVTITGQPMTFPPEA

[6] = molecular target: T1, B7-H3 on human tumor cell lines (HT29, …); experiment: flow cytometry on HCC827 cells (experiment 2)
[7] = molecular target: T1, B7-H3 on human tumor cell lines (HT29, …); experiment: flow cytometry on NCI-N87 cells
[8] = molecular target: T1, B7-H3 on human tumor cell lines (HT29, …); experiment: flow cytometry on HT29 cells (experiment 2)
[9] = molecular target: T1, B7-H3 on human tumor cell lines (HT29, …); experiment: flow cytometry on HT29 cells

EC50 [1]: 0.00967 µg/mL | Kd [2]: 17.3 nM | EC50 [3]: 0.0123 µg/mL | EC50 [6]: 0.029 µg/mL | EC50 [7]: 0.00577 µg/mL | EC50 [8]: 0.0114 µg/mL | EC50 [9]: 0.00634 µg/mL
B1: fully human anti-B7-H3 antibody 2#8890 (antibody, human IgG1, kappa)
heavy: QVQLQESGPGLVQPSGTLSLTCAVSGGSDSSTNWWTWVRQSPGQGLEWIGEISPIGFTSYSPSLRSRVTISVDKSKTQFSLKLSSVTAADTAVYYCARDRLYFAFWGQGTLVTVSSASTKGPSVFPLAPSSKSTSGGTAALGCLVKDYFPEPVTVSWNSGALTSGVHTFPAVLQSSGLYSLSSVVTVPSSSLGTQTYICNVNHKPSNTKVDKKV[human IgG1 Fc with L234A L235A G237A (EU numbers) left out here]
light: EIVMTQSPATLSVSPGERATLSCRASQSVSSNLAWYQQKPGQAPRLLIYGASTRATGIPDRFSGSGSGTEFTLTISSLESEDFAVYYCQQYNNWPITFGQGTRLEIKRTVAAPSVFIFPPSDEQLKSGTASVVCLLNNFYPREAKVQWKVDNALQSGNSQESVTEQDSKDSTYSLSSTLTLSKADYEKHKVYACEVTHQGLSSPVTKSFNRGEC
notes: expressed in CHO-S, Protein A purified
binding result [4]: no binding (tested: 5000 nM (highest concentration)) | binding result [5]: no binding (tested: 200 nM (highest antigen concentration))
